Test results: patent US20260137703A1, “2-AMINO-PYRIDO[2,3-D]PYRIMIDIN-7(8H)-ONE AND 7-AMINO-1-PYRIMIDO[4,5-D]PYRIMIDIN-2(1 H)-ONE DERIVATIVES AS EGFR INHIBITORS FOR THE TREATMENT OF CANCER” (Cancer Research Technology Limited, priority 2022, published 2026)

Target: CtermHisTag-mEGFR Triple Mutant (R797S, L858R, T790M) (Homo sapiens, UniProt P00533, C797S/L858R/T790M)
Experiment: TR-FRET probe displacement, EGFR triple mutant
Details: 1.25 nM EGFR, 100 nM probe, 30 mins room temperature

IC50, < 20 nM:
C#Cc1c(-c2ccccc2Cl)c(=O)n(C)c2nc(Nc3ccc(N(C)CCN(C)C)c(C)c3)ncc12 [Example 133, 6-(2-chlorophenyl)-2-[(4-{[2-(dimethylamino)ethyl](methyl)amino}-3-methylphenyl)amino]-5-ethynyl-8-methylpyrido[2,3-d]pyrimidin-7-one]
C#Cc1cc(=O)n(-c2ccccc2)c2nc(Nc3ccc(N(C)CCCN(C)C)cc3)ncc12 [Example 9, 2-((4-((3-(Dimethylamino)propyl)(methyl)amino)phenyl)amino)-5-ethynyl-8-phenylpyrido[2,3-d]pyrimidin-7(8H)-one]
C#Cc1cc(=O)n(-c2ccccc2)c2nc(Nc3ccc(N4CCN(C5COC5)CC4)cc3)ncc12 [Example 18, 5-Ethynyl-2-({4-[4-(oxetan-3-yl)piperazin-1-yl]phenyl}amino)-8-phenylpyrido[2,3-d]pyrimidin-7-one]
C#Cc1cc(=O)n(C)c2nc(Nc3ccc(N4CCN(C)CC4)c(OC4CCCC4)c3)ncc12 [Example 215, 2-((3-(Cyclopentyloxy)-4-(4-methylpiperazin-1-yl)phenyl)amino)-5-ethynyl-8-methylpyrido[2,3-d]pyrimidin-7(8H)-one]
C#Cc1cc(=O)n([C@H]2CC[C@H](NC(C)=O)CC2)c2nc(Nc3ccc(N4CCN(C)CC4)cc3)ncc12 [Example 87, N-[(1r,4r)-4-(5-Ethynyl-2-{[4-(4-methylpiperazin-1-yl)phenyl]amino}-7-oxopyrido[2,3-d]pyrimidin-8-yl)cyclohexyl]acetamide]
C#Cc1cc(=O)n(-c2ccccc2)c2nc(Nc3ccc(N4CCNCC4)cc3)ncc12 [Example 14, 5-Ethynyl-8-phenyl-2-{[4-(piperazin-1-yl)phenyl]amino}pyrido[2,3-d]pyrimidin-7-one]

IC50, 20 to 100 nM:
C#Cc1c(C)c(=O)n(Cc2ccncc2)c2nc(Nc3ccc(N4CCN(C)CC4)cc3)ncc12 [Example 179, 5-Ethynyl-6-methyl-2-{[4-(4-methylpiperazin-1-yl)phenyl]amino}-8-(pyridin-4-ylmethyl)pyrido[2,3-d]pyrimidin-7-one]
C#Cc1cc(=O)n(-c2cccc(NC(=O)COC(C)=O)c2)c2nc(Nc3ccccc3OC)ncc12 [Example 59, 2-((3-(5-Ethynyl-2-((2-methoxyphenyl)amino)-7-oxopyrido[2,3-d]pyrimidin-8(7H)-yl)phenyl)amino)-2-oxoethyl acetate]
C#Cc1cc(=O)n(C)c2nc(Nc3cccc(N(C)C(=O)CN(C)C)c3)ncc12 [Example 53, 2-(Dimethylamino)-N-[3-({5-ethynyl-8-methyl-7-oxopyrido[2,3-d]pyrimidin-2-yl}amino)phenyl]-N-methylacetamide]
C#Cc1cc(=O)n(-c2cccc(NC(C)=O)c2)c2nc(Nc3ccccc3OC)ncc12 [Example 56, N-(3-(5-Ethynyl-2-((2-methoxyphenyl)amino)-7-oxopyrido[2,3-d]pyrimidin-8(7H)-yl)phenyl)acetamide]
C#Cc1cc(=O)n(C)c2nc(Nc3ccc(N4CCN(C)CC4)c(OCCC4CCCCC4)c3)ncc12 [Example 213, 2-((3-(2-Cyclohexylethoxy)-4-(4-methylpiperazin-1-yl)phenyl)amino)-5-ethynyl-8-methylpyrido[2,3-d]pyrimidin-7(8H)-one]
C#Cc1c(-c2ccccc2Cl)c(=O)n(C)c2nc(Nc3ccc(N(C)CCN(C)C)cc3OC)ncc12 [Example 122, 6-(2-chlorophenyl)-2-[(4-[[2-(dimethylamino)ethyl](methyl)amino]-2-methoxyphenyl)amino]-5-ethynyl-8-methylpyrido[2,3-d]pyrimidin-7-one]

IC50, 100 to 1000 nM:
C#Cc1c(-c2c(Cl)cccc2Cl)c(=O)n(C)c2nc(Nc3cccc(CO)c3)ncc12 [Example 125, 6-(2,6-dichlorophenyl)-5-ethynyl-2-{[3-(hydroxymethyl)phenyl]amino}-8-methylpyrido[2,3-d]pyrimidin-7-one]
C#Cc1cc(=O)n(-c2ccccc2)c2nc(NC3CCN(S(C)(=O)=O)CC3)ncc12 [Example 10, 5-Ethynyl-2-((1-(methylsulfonyl)piperidin-4-yl)amino)-8-phenylpyrido[2,3-d]pyrimidin-7(8H)-one]
C#Cc1cc(=O)n2c3nc(ncc13)Nc1cccc(c1)OC[C@H]1CC[C@H](C1)C2 [Example 192, (5^1R,5^3S)-3^5-ethynyl-3^7,3^8-dihydro-7-oxa-2-aza-3(2,8)-pyrido[2,3-d]pyrimidina-1(1,3)-benzena-5(1,3)-cyclopentanacycloheptaphan-3^7-one]
C#Cc1cc(=O)n(-c2ccc(NC(=O)C=C)cc2)c2nc(Nc3ccccc3OC)ncc12 [Example 88, N-(4-(5-Ethynyl-2-((2-methoxyphenyl)amino)-7-oxopyrido[2,3-d]pyrimidin-8(7H)-yl)phenyl)acrylamide]
C#Cc1c(C)c(=O)n(Cc2ncc[nH]2)c2nc(Nc3ccc(N4CCN(C)CC4)cc3)ncc12 [Example 177, 5-Ethynyl-8-(1H-imidazol-2-ylmethyl)-6-methyl-2-{[4-(4-methylpiperazin-1-yl)phenyl]amino}pyrido[2,3-d]pyrimidin-7-one]

IC50, 1000 to 50000 nM:
C=Cc1cc(=O)n(-c2ccc(OC)cc2)c2nc(Nc3ccccc3OC)ncc12 [Example 157, 8-(4-Methoxyphenyl)-2-((2-methoxyphenyl)amino)-5-vinylpyrido[2,3-d]pyrimidin-7(8H)-one]
C=Cc1cc(=O)n(-c2ccc(OC)cc2OC)c2nc(Nc3ccccc3OC)ncc12 [Example 154, 8-(2,4-dimethoxyphenyl)-5-ethenyl-2-[(2-methoxyphenyl)amino]pyrido[2,3-d]pyrimidin-7-one]
